The list shows a part of the results. The full chains were built here from the parent and the listed change. Values near 0.05 are background.
B1: TEV protease; numbered along this chain (parent)
chain: MGESLFKGPRDYNPISSSICHLTNESDGHTTSLYGIGFGPFIITNKHLFRRNNGTLVVQSLHGVFKVKDTTTLQQHLVDGRDMIIIRMPKDFPPFPQKLKFREPQREERICLVTTNFQTKSMSSMVSDTSCTFPSGDGIFWKHWIQTKDGQCGSPLVSTRDGFIVGIHSASNFTNTNNYFTSVPKNFMELLTNQEAQQWVSGWRLNADSVLWGGHKVFMVKPEEPFQPVKEATQL

Variants of: B1
Experiment: raw area under fraction-flipped curve 0-4 h after induction (AUC4h, not background-subtracted), DNA-recorder readout of cleavage of the substrate (dimensionless); higher = more cleavage of the substrate by the protease variant
Settings: temperature: 34 °C; time window: 0-4 h after rhamnose induction
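Note: Bxb1 expression induced with 0.2% (w/v) L-rhamnose at OD600 near 0.5, cultures sampled hourly, flipped fraction per protease–substrate barcode pair counted by paired-end Illumina sequencing.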

Variant	area with substrate CNLYFQS	area with substrate DNLYFQS	area with substrate FNLYFQS	area with substrate GNLYFQS	area with substrate HNLYFQS	area with substrate INLYFQS	area with substrate KNLYFQS	area with substrate LNLYFQS	area with substrate MNLYFQS	area with substrate PNLYFQS	area with substrate QNLYFQS	area with substrate TNLYFQS	area with substrate WNLYFQS	area with substrate YNLYFQS	area with substrate SNLYFQS	area with substrate NNLYFQS	area with substrate VNLYFQS	area with substrate RNLYFQS
K185M	0.0813	0.07	0.0552	0.0707	0.0657	0.064	0.0651	0.0661	0.0609	0.0764	0.126	0.0654	0.0513	0.0657				
K185S	0.0625	0.0891		0.0593	0.0496			0.0514	0.0602	0.0813			0.074	0.0455	0.0678			
F187D	0.0454	0.0687	0.0515	0.0474	0.0545		0.0609	0.0538		0.0498		0.0549	0.0567	0.0575				
F187R	0.0513	0.071		0.0382	0.0487			0.0634	0.0497	0.0521		0.0446	0.0434		0.049	0.0462	0.0406	
F187Y	0.0653	0.0614	0.0469		0.059	0.0535	0.0727			0.0681	0.057	0.0472	0.0591	0.0615	0.0728	0.0669		
M188N	0.0771	0.0854			0.0551				0.0546	0.077		0.0512	0.0625		0.0563			
M188S	0.0719	0.0772			0.0766	0.0715	0.0699	0.0586	0.0772	0.0913		0.0656	0.0565		0.0577			
E189C	0.0613	0.0353	0.0844	0.063				0.0617	0.0554	0.064		0.0258		0.0546	0.0844		0.0659	
E189G	0.0444	0.0842	0.0633	0.0706	0.0639	0.058	0.0651	0.0629				0.0637	0.0556			0.0704		
E189N	0.0414	0.0542	0.0743		0.0624	0.073	0.0734	0.0662		0.0691		0.059	0.0565	0.0737	0.0704		0.062	
E189T	0.0528	0.0685			0.0627	0.0838			0.0509			0.0882	0.0639		0.0635			
L191P	0.0429	0.0563		0.0572		0.0459			0.0494	0.0378		0.059	0.0498	0.0668			0.0705	
Q194H	0.0693	0.0468	0.0667	0.0584	0.0582		0.0748	0.0741		0.0635		0.0589	0.0548	0.0726	0.059	0.0733	0.0792	
Q194N	0.0841	0.093	0.0608		0.064	0.0508	0.0496		0.0425			0.0575	0.0525	0.0337				
E195A	0.0652	0.0867	0.0617	0.0632	0.0521	0.0488		0.0582		0.0622		0.0806	0.0626		0.0715	0.1		0.0685
E195N	0.0665	0.0786	0.0599	0.059		0.0324	0.0725	0.0652	0.0417	0.0544		0.0693	0.0558	0.0502	0.0725	0.0656		
E195R	0.0761	0.0569	0.0495	0.0721	0.0666		0.0613	0.0731	0.0539			0.058	0.0634	0.0596		0.053	0.0811	
A196D	0.0669	0.0818	0.0646	0.0464	0.0616	0.0493	0.0662					0.0884		0.0777		0.0723		0.068
A196F	0.0788	0.0827	0.0617	0.0717	0.0603	0.0625		0.0525	0.0915	0.0538		0.0717	0.0605		0.0363		0.0545	
A196W	0.0792	0.0847		0.067					0.0493	0.0724		0.0668	0.0508		0.0607			
Q197V	0.0618	0.0636	0.0565	0.0927	0.0445		0.058	0.0569	0.06	0.0911		0.0575	0.0855	0.0675	0.0644	0.0907	0.0557	0.0538
Q198A	0.0697	0.0645			0.0579	0.0663	0.0806		0.0638	0.0916			0.0591			0.052	0.0605	0.0654
Q198L	0.0682	0.0518	0.0553	0.0712		0.0603			0.0734	0.0576	0.0554	0.0534	0.0618					
Q198N	0.0752	0.0844			0.0778		0.085	0.066					0.0646	0.036		0.0596		
Q198T	0.0727	0.0854			0.0576		0.0747	0.048		0.0712		0.0704		0.0571	0.05	0.0579	0.0703	
W199F	0.0694	0.0572	0.0579		0.0535	0.0602	0.0541	0.0609				0.0608	0.0658	0.0557		0.0552	0.0616	
W199P	0.057	0.0598	0.0537	0.0517	0.0477	0.0524	0.0702	0.0674	0.0607	0.0638		0.0597	0.0594	0.0601	0.0463			
S201G	0.0529	0.0576	0.0544		0.0542		0.0956		0.0567	0.0606	0.058	0.0392	0.0609	0.0532	0.0345	0.0697		
G202R	0.068	0.0573		0.0459	0.0488		0.065					0.0646	0.0517		0.05	0.0708		
W203V	0.0399	0.0424	0.0587	0.0343	0.0572	0.0495		0.0712	0.0592		0.0668	0.0547	0.0535	0.0553	0.058		0.0667	0.0467

Reference: the supplement of paper PMC12217912
